The source of these data is a collection of fitness landscapes (doi:10.1126/science.1257360).

B1: PhoQ; a variant is named by its letters at X, in order, P23837 (parent)
chain: MKKLLRLFFPLSLRVRFLLATAAVVLVLSLAYGMVALIGYSVSFDKTTFRLLRGESNLFYTLAKWENNKLHVELPENIDKQSPTMTLIYDENGQLLWAQRDVPWLMKMIQPDWLKSNGFHEIEADVNDTSLLLSGDHSIQQQLQEVREDDDDAEMTHSVAVNVYPATSRMPKLTIVVVDTIPVELKSSYMVWSWFIYVLSANLLLVIPLLWVAAWWSLRPIEALAKEVRELEEHNRELLNPATTRELTSLVRNLNRLLKSERERYDKYRTTLTDLTHSLKTPLXXLQXXLRSLRSEKMSVSDAEPVMLEQISRISQQIGYYLHRASMRGGTLLSRELHPVAPLLDNLTSALNKVYQRKGVNISLDISPEISFVGEQNDFVEVMGNVLDNACKYCLEFVEISARQTDEHLYIVVEDDGPGIPLSKREVIFDRGQRVDTLRPGQGVGLAVAREITEQYEGKIVAGESMLGGARMEVIFGRQHSAPKDE

The other results are listed elsewhere or left out.

The assay covers variants of B1. The experiment in a line: enrichment ratio after two sorts for PhoP signalling (ratio (wild type AVST 3.29)); higher = more functional. The settings on record: with PhoP (E. coli).
In the case of IWSP, the enrichment ratio is no more than 0.25.

Take EEYP: the enrichment ratio was no more than 0.25.

Turning to LNYM, the enrichment ratio was no more than 0.25.

Regarding NLSK, the enrichment ratio is 0.526.

Take MRFP: the enrichment ratio was no more than 0.25.

On to VDIL, for which the enrichment ratio is no more than 0.25.

RPQK: the enrichment ratio is no more than 0.25.

For HPLK, the enrichment ratio was no more than 0.25.

Turning to DGKF, the enrichment ratio was no more than 0.25.

As to VAYL, the enrichment ratio came out at 3.85.

Turning to MKKV, the enrichment ratio is no more than 0.25.

As to DMRF, the enrichment ratio is no more than 0.25.

With NTRK, the enrichment ratio is no more than 0.25.

Take YCRP: the enrichment ratio was no more than 0.25.

Turning to TIWR, the enrichment ratio was 0.859.

Regarding KIHG, the enrichment ratio is no more than 0.25.

QIVI: the enrichment ratio was no more than 0.25.

Turning to RQLK, the enrichment ratio was no more than 0.25.

As for TDPV, the enrichment ratio is no more than 0.25.

Turning to MDDE, the enrichment ratio is no more than 0.25.

On to ANNL, for which the enrichment ratio was 15.7.

Turning to FWGM, the enrichment ratio was no more than 0.25.

For WLSN, the enrichment ratio was no more than 0.25.

Regarding VKIL, the enrichment ratio was no more than 0.25.

Take QAKK: the enrichment ratio is no more than 0.25.

Take TGDE: the enrichment ratio is no more than 0.25.

As to YLWT, the enrichment ratio is no more than 0.25.

Take DEFL: the enrichment ratio is no more than 0.25.

With WWCV, the enrichment ratio is no more than 0.25.

For the variant YFDE, the enrichment ratio was no more than 0.25.

With QDMQ, the enrichment ratio was no more than 0.25.

On to SFIV, for which the enrichment ratio is no more than 0.25.

For MKVD, the enrichment ratio is no more than 0.25.

In the case of DLMW, the enrichment ratio was no more than 0.25.

For EKSN, the enrichment ratio was no more than 0.25.

HTGN: the enrichment ratio is no more than 0.25.

QFGG: the enrichment ratio is no more than 0.25.

Regarding FIQV, the enrichment ratio was no more than 0.25.

Turning to QKQY, the enrichment ratio was no more than 0.25.

As for TVMN, the enrichment ratio is 8.14.

For LCTI, the enrichment ratio was no more than 0.25.

For QMKC, the enrichment ratio is no more than 0.25.

On to LDHV, for which the enrichment ratio was no more than 0.25.

Turning to DQPG, the enrichment ratio was no more than 0.25.

With WNVG, the enrichment ratio was no more than 0.25.

Take GLCH: the enrichment ratio came out at 2.53.

Take QRVD: the enrichment ratio was no more than 0.25.

As to GNVW, the enrichment ratio is no more than 0.25.

With NKCW, the enrichment ratio is no more than 0.25.

Take YSNK: the enrichment ratio was no more than 0.25.

LYQG: the enrichment ratio was no more than 0.25.

For the variant KTAG, the enrichment ratio was no more than 0.25.

Take KAMA: the enrichment ratio is no more than 0.25.

In the case of IHTS, the enrichment ratio was no more than 0.25.

AILS: the enrichment ratio was determined as 9.63.

In the case of KGWS, the enrichment ratio was no more than 0.25.

As for WDRT, the enrichment ratio was no more than 0.25.

Take LWCA: the enrichment ratio was no more than 0.25.

On to YWKK, for which the enrichment ratio is no more than 0.25.

For HPHC, the enrichment ratio is no more than 0.25.

As to ERPF, the enrichment ratio is no more than 0.25.

As to VNRV, the enrichment ratio is no more than 0.25.

With FPAD, the enrichment ratio is no more than 0.25.

TCMD: the enrichment ratio is no more than 0.25.

Regarding IIGL, the enrichment ratio is no more than 0.25.

Consider IPWI, for which the enrichment ratio is no more than 0.25.

As to ITYF, the enrichment ratio was no more than 0.25.

For the variant DKCT, the enrichment ratio is no more than 0.25.

Turning to NKWG, the enrichment ratio was no more than 0.25.

Regarding FFMY, the enrichment ratio is no more than 0.25.

Take GEWW: the enrichment ratio was no more than 0.25.

Regarding HHWR, the enrichment ratio was no more than 0.25.

For YCCD, the enrichment ratio was no more than 0.25.

KPTP: the enrichment ratio was no more than 0.25.

On to YTMK, for which the enrichment ratio was no more than 0.25.

As to GFIM, the enrichment ratio was no more than 0.25.

For the variant YHKN, the enrichment ratio was no more than 0.25.

With VLPK, the enrichment ratio was no more than 0.25.

Turning to PSNI, the enrichment ratio is no more than 0.25.

With PNAD, the enrichment ratio was no more than 0.25.

As to VEIW, the enrichment ratio is no more than 0.25.

As for FKHV, the enrichment ratio was no more than 0.25.

PHWI: the enrichment ratio was no more than 0.25.

Take PMVT: the enrichment ratio is no more than 0.25.

For AWMW, the enrichment ratio is no more than 0.25.

For FSAC, the enrichment ratio is no more than 0.25.

As for QTFG, the enrichment ratio was 2.14.

Regarding VLAI, the enrichment ratio is no more than 0.25.

As for PLKC, the enrichment ratio was no more than 0.25.

With SFQK, the enrichment ratio was no more than 0.25.

As for RWKY, the enrichment ratio was no more than 0.25.

In the case of WSIW, the enrichment ratio was no more than 0.25.

As to QFWN, the enrichment ratio is no more than 0.25.

For the variant LIRG, the enrichment ratio is no more than 0.25.

With MRSC, the enrichment ratio was no more than 0.25.

Turning to MATT, the enrichment ratio was no more than 0.25.

For RAKP, the enrichment ratio is no more than 0.25.

As to LHVL, the enrichment ratio is no more than 0.25.

Turning to TISN, the enrichment ratio was found to be 13.4.

ATLH: the enrichment ratio is 11.5.

GRHY: the enrichment ratio is no more than 0.25.

Take YAMH: the enrichment ratio was no more than 0.25.

AVVI: the enrichment ratio was determined as 3.1.

KVHG: the enrichment ratio is no more than 0.25.

On to DLFI, for which the enrichment ratio is no more than 0.25.

Take GKCV: the enrichment ratio was no more than 0.25.

With AGVN, the enrichment ratio was determined as 6.57.

With FGTP, the enrichment ratio was no more than 0.25.

As to DDAK, the enrichment ratio was no more than 0.25.

For EVPI, the enrichment ratio was no more than 0.25.

As to QPRM, the enrichment ratio was no more than 0.25.

Regarding RAPT, the enrichment ratio is no more than 0.25.

With FHFA, the enrichment ratio was no more than 0.25.

As to NQMV, the enrichment ratio was no more than 0.25.

As for PRGQ, the enrichment ratio was no more than 0.25.

GGCY: the enrichment ratio came to 16.1.

On to SYSA, for which the enrichment ratio was no more than 0.25.

For TIYP, the enrichment ratio worked out at 2.52.

IHDI: the enrichment ratio is no more than 0.25.

With TNTD, the enrichment ratio is no more than 0.25.

For the variant AGRA, the enrichment ratio was no more than 0.25.

Take VWQV: the enrichment ratio is no more than 0.25.

SLNM: the enrichment ratio was no more than 0.25.

For SQIG, the enrichment ratio turned out to be 9.99.

VGFI: the enrichment ratio was determined as 0.424.

Regarding DAAS, the enrichment ratio was no more than 0.25.

As to TKGD, the enrichment ratio was no more than 0.25.

On to IHIT, for which the enrichment ratio was no more than 0.25.

Regarding GNER, the enrichment ratio is no more than 0.25.

Take TFKW: the enrichment ratio is no more than 0.25.

IIKT: the enrichment ratio was no more than 0.25.

Take HPWS: the enrichment ratio was no more than 0.25.

Regarding LALW, the enrichment ratio is no more than 0.25.

For PEAE, the enrichment ratio is no more than 0.25.

As to DLMM, the enrichment ratio was no more than 0.25.

On to DNDT, for which the enrichment ratio was no more than 0.25.

As for MCWV, the enrichment ratio came out at 2.25.

As to KRCH, the enrichment ratio is no more than 0.25.

On to TQRE, for which the enrichment ratio was no more than 0.25.

With KVEY, the enrichment ratio was no more than 0.25.

On to LRDM, for which the enrichment ratio is no more than 0.25.

As for EDND, the enrichment ratio is no more than 0.25.

With HPGY, the enrichment ratio is no more than 0.25.

In the case of TAEM, the enrichment ratio amounted to 25.7.

Take MGWQ: the enrichment ratio is 24.5.

On to MCCP, for which the enrichment ratio is no more than 0.25.

Consider RAEP, for which the enrichment ratio was no more than 0.25.

Regarding PFAY, the enrichment ratio was no more than 0.25.

Consider GSGL, for which the enrichment ratio amounted to 0.59.

Regarding FTEC, the enrichment ratio is no more than 0.25.

In the case of PGWT, the enrichment ratio was no more than 0.25.

Turning to CFSN, the enrichment ratio is no more than 0.25.

Regarding VTNG, the enrichment ratio is no more than 0.25.
